# Source: paper PMC6919601, “Identification of Plasmodium dipeptidyl aminopeptidase allosteric inhibitors by high throughput screening” (PLoS ONE, 2019)
# Out of some 110,000 compounds screened, about 230 (0.21%) showed an effect of 50% or more. This is one part of the list.
# Target: DPAP1 (Plasmodium falciparum, UniProt Q8IIJ9)
# Experiment: primary screen, percent inhibition; read by cleavage of a fluorogenic dipeptide substrate; higher = more effect of the substance
# Set-up: species or system P. falciparum D10 trophozoite lysates; single well
# 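Note: 30 min substrate incubation versus DMSO and 10 µM JCP410 controls.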
# Chain of DPAP1 (Q8IIJ9 whole entry, looked up): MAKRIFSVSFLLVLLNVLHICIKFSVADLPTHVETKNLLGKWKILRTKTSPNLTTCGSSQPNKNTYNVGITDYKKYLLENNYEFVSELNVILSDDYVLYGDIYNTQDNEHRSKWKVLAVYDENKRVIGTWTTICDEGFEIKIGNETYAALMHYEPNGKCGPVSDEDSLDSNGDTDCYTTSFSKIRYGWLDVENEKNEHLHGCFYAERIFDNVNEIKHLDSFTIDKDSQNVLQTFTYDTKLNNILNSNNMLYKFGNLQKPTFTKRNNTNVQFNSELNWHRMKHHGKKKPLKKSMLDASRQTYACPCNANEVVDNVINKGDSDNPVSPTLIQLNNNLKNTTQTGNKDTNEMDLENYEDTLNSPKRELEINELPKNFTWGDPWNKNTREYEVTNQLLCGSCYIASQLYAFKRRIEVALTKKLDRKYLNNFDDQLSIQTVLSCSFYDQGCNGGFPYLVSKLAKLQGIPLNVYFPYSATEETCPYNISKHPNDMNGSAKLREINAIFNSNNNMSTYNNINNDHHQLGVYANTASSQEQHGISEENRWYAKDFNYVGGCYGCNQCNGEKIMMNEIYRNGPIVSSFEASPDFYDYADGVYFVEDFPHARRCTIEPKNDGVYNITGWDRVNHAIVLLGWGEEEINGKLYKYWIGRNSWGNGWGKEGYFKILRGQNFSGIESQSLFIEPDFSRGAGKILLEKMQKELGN
row,SMILES,% Inhibition @ 10 uM [%]
1,COc1ccc(CNC(=O)C(C)n2ccc3cc(S(=O)(=O)N4CCCC4)ccc32)c(OC)c1 (stereo not shown),2.48
2,Nc1c(C(=O)c2ccccc2)sc2nc3c(cc12)CCC3,-4.61
3,COc1ccc(C2C3=C(O)CCCC3=Nc3[nH]nc(-c4ccc(Cl)cc4)c32)cc1OC (stereo not shown),0.244
4,CCc1c(O)cc2n(c1=O)-c1ccc(Cl)cc1C2(C)C,-1.07
5,CCOc1ccc(-c2cc(C(=O)O)c3c(-c4ccc(C)cc4)[nH]nc3n2)cc1,-0.901
6,Cc1ccc(/C=C2/N=C(c3ccc(C)c(C)c3)OC2=O)o1,0.997
7,COc1ccc(CCNC(=O)CCS(=O)(=O)c2ccc(Br)s2)cc1OC,0.0654
8,CCc1cccc(C)c1NC(=O)CN(c1ccc(C)cc1C)S(C)(=O)=O,11.5
9,O=C(CSc1nc2ccccc2nc1N1CCCCC1)NCc1ccccc1Cl,3.36
10,O=C(Nc1ccc2c(c1)OCO2)c1ccc(Oc2ccccc2)cc1,4.57
11,Cc1[nH]c2ccccc2c1CCN1C(=O)OC2(CCCCC2)C1(C)O (stereo not shown),-0.958
12,Cc1c(N=C(N)N)c(=O)n(-c2ccccc2)n1C,4.65
13,COc1ccc(CN2CCN(c3ccccc3C)CC2)cc1O,-1.77
14,CC1(C)CC2=NC3=C(C(=O)CC(C)(C)C3)C(c3cccs3)C2=C(O)C1 (stereo not shown),-3.19
15,O=C(c1cc(-c2ccc3c(c2)OCO3)nc2ccccc12)N1CCCC1,2.09
16,CC(=O)C(Sc1nnc(-c2c[nH]c3ccccc23)n1C)C(C)=O,5.77
17,O=C1CC(c2ccccc2)CC(=O)C1=CNc1ccccc1Oc1ccccc1 (stereo not shown),2.45
18,CCc1ccc2c(c1)C(O)(CC(=O)c1ccccc1)C(=O)N2 (stereo not shown),-7.9
19,COc1cccc(C2=NOC(C(=O)Nc3cccnc3Cl)C2)c1OC (stereo not shown),-2.16
20,Clc1ccccc1N1CCN(Cc2ccc(Br)s2)CC1,1.48
21,O=C(CSCc1ccc(F)cc1)NCc1cccs1,-1.21
22,CC1CCCN(C(=O)CSc2nc3ccsc3c(=O)n2Cc2ccccc2Cl)C1 (stereo not shown),-4.58
23,COc1cccc(-c2cn3c(n2)sc2cc(C(=O)NCc4ccccn4)ccc23)c1,5.11
24,CCc1noc2c1/C(=N\O)CC(C)(C)C2,-0.807
25,COCCN1C(=O)c2oc3cc(C)c(C)cc3c(=O)c2C1c1ccc(C(=O)OC)cc1 (stereo not shown),0.628

row,SMILES,% Inhibition @ 10 uM [%]
1,N#Cc1nc(/C=C/c2ccc(F)cc2)oc1NCc1ccco1,-4.39
2,CN1CCN(C(=O)c2ccc(Cl)c(Cl)c2)CC1,6.18
3,Cc1cc(C)cc(N(CC(=O)Nc2ccccc2C(=O)N2CCOCC2)S(C)(=O)=O)c1,1.71
4,COc1ccc(C(=O)NC2=NCCS2)cc1OC,17.4
5,CC(C)(C)c1cc(CO)c(O)c(CO)c1,-2.77
6,COc1cccc(C2CC(c3ccc(Br)cc3)=NN2C(=O)c2ccncc2)c1OC (stereo not shown),0.131
7,Cc1c(Cl)cccc1N(CC(=O)Nc1ccccc1C(=O)O)S(C)(=O)=O,-10.2
8,Cc1cccc(OCCNC(=O)CCc2ccccc2)c1,-0.303
9,CC(C)NCC(O)COc1ccc2ccccc2c1 (stereo not shown),2.86
10,Cc1ccc(NC(=O)CC2Nc3ccccc3NC2=O)c(C)c1 (stereo not shown),3.24
11,O=C(CSc1nc2ccccc2nc1N1CCOCC1)N1CCN(c2ccccn2)CC1,-3.53
12,CCC(C)(C)C1CCc2c(sc(NC(=O)c3ccc(C)o3)c2C(N)=O)C1 (stereo not shown),-3.04
13,Cc1cc(C)nc(NS(=O)(=O)c2ccc(NC(=O)CCc3ccccc3)cc2)n1,5.46
14,CCCn1c2ccccc2c2cnn(CC(=O)N3CCN(C(=O)c4ccco4)CC3)c(=O)c21,-3.22
15,COc1cc(OC)c2c(C)c(CC(=O)NCc3ccc4c(c3)OCO4)c(=O)oc2c1,5.68
16,CCOC(=O)C1=NNC2C(=O)N(c3ccc(F)cc3)C(=O)C12 (stereo not shown),-5.48
17,Cc1cccc(C)c1NC(=O)c1cnn(-c2ccccc2)c1C,-2.74
18,CCN(CC)C(=O)C1CCCN(C(=O)CN2C(=O)c3ccccc3C2=O)C1 (stereo not shown),-1.46
19,CCCCNC(=O)c1cc(-c2ccc(C)o2)nc2ccccc12,7.03
20,CCc1ccc(C(=O)c2cnc3cc4c(cc3c2N2CCCC2)OCO4)cc1,-4.68
21,Cc1ccc2c(c1)-c1onc(C(=O)N(Cc3ccco3)C3CCCCC3)c1CO2,-0.539
22,c1cncc(Nc2nc(-c3cccs3)cs2)c1,3.38
23,COc1ccc(/C=C/C2=NN(c3ccc(Br)cc3Br)C(c3ccc(OC)cc3)C2)cc1 (stereo not shown),-6.11
24,CC1(C)Cc2ccccc2C(N)=C1C#N,0.827
25,COc1ccc(OC)c(S(=O)(=O)/N=C2\C=C3N(CCO)CCOC3(O)c3ccccc32)c1 (stereo not shown),0.0539

row,SMILES,% Inhibition @ 10 uM [%]
1,O=C(CCn1c(=S)[nH]c2c([nH]c3ccccc32)c1=O)NCc1ccccc1,-1.29
2,Cc1ccc2[nH]c3c(c2c1)CCC3C(N)=O (stereo not shown),1.57
3,CC(Oc1ccccc1F)C(=O)NC1CCS(=O)(=O)C1 (stereo not shown),3.57
4,COc1ccc(-c2ccc(CNCCNC(=O)c3nonc3N)o2)cc1Cl,0.00706
5,COc1ccc(CCN2CC(C(=O)NC3CCCCC3)CC2=O)cc1OC (stereo not shown),1.62
6,CSc1ncccc1C(=O)NCCc1ccccc1F,0.238
7,CCSC1=NSC2=NC(=O)/C(=C\c3c(C)[nH]c4ccccc34)C(=N)N12,4.79
8,Cc1ccc(CN2CC(C(=O)O)CC2=O)cc1 (stereo not shown),0.121
9,COc1ccc(/C=C/C(=O)c2ccc(C)o2)cc1,7.24
10,COc1ccccc1CNC(=O)c1ccc2snnc2c1,-0.0235
11,CC(=O)c1cccc(NC(=O)COc2ccc(Cl)cc2Cl)c1,-5.46
12,O=C(CN1N=C(c2ccc(Cl)cc2)CCC1=O)NCCN1CCN(Cc2ccccc2)CC1,8.32
13,CSC1=C(C#N)C(c2cccc3ccccc23)CC(=O)N1 (stereo not shown),6.95
14,CC(C)C[C@H](NC(=O)c1ccc(N(C)c2nc(-c3ccncc3)cs2)cc1)C(=O)NCC#N,4.63
15,O=C(c1ccc([N+](=O)[O-])cc1)N1CCN(c2ccccc2)CC1,-1.22
16,CCCc1nc2c([nH]1)OC(N)=C(C#N)C2c1cccnc1 (stereo not shown),-2.53
17,COC(=O)c1cc(C)c(-c2ccccc2)[nH]1,-1.75
18,c1ccc2c(c1)nnn2Cc1nnc2sc(-c3ccc4c(c3)OCO4)nn12,2.29
19,COc1ccccc1C1=N/C(=C\c2ccc(Cl)c(Cl)c2)C(=O)O1,3.9
20,O=C1C2C3CCC(C3)C2C(=O)N1c1cccc(C(F)(F)F)c1 (stereo not shown),-3.92
21,O=C(CN1N=C(c2ccccc2)CCC1=O)N1CCOCC1,3.79
22,O=C1c2c(c3ccccc3n2Cc2ccccc2)CCN1c1ccccc1,0.00178
23,CC(=O)N1CCN(c2cc(C)c([N+](=O)[O-])cc2F)CC1,-0.711
24,CCOc1ccc(CCNC(=O)C2CCN(c3nnc(N4CCCC4=O)s3)CC2)cc1OCC,3.87
25,Cc1cc(NCc2ccncc2)nc2ccccc12,-3.44

row,SMILES,% Inhibition @ 10 uM [%]
1,CC1CN(C(=O)c2ccc(COc3ccccc3Br)o2)CC(C)O1 (stereo not shown),-1.55
2,O=C1c2cccc3cccc(c23)C(=O)N1CCCC(=O)N1CCCc2ccccc21,16.8
3,COCCNC(=O)CN1C(=O)c2ccccc2S1(=O)=O,-1.17
4,COc1ccc(CC(=O)Nc2cccc(Cl)c2)cc1OC,-1.17
5,Cc1ccc2nc3c(cc(C(=O)NCc4cccnc4)c(=N)n3Cc3ccco3)c(=O)n2c1,-1.47
6,O=C(Nc1ccccc1Cl)N1CCN(c2ccccc2)CC1,-3.14
7,CC(=O)N1CCN(c2ccc(Cl)cc2[N+](=O)[O-])CC1C (stereo not shown),1.43
8,COc1ccc(NC(=O)CN(c2ccc(Br)cc2)S(C)(=O)=O)c(OC)c1,-5.13
9,COc1cccc(Cn2c(SCc3ccc(C(=O)N4CCCC4)cc3)nc3ccncc32)c1,2.65
10,CCCN(Cc1c[nH]c2ccccc12)CC1CC1,2.7
11,Cc1cc(=O)n2nc(N(C)CC(=O)NCc3cccs3)sc2n1,-2
12,CN1CCC(N(C)Cc2cccc(Oc3ccccc3)c2)CC1,-4.94
13,CCCCCOC(=O)NCC(O)c1ccccc1 (stereo not shown),-4.08
14,COc1ccc(C2CC(C(F)(F)F)n3ncc(C(=O)Nc4ccc5c(c4)OCO5)c3N2)cc1 (stereo not shown),-1.35
15,Cc1nn(CC(=O)Nc2nnc(CCc3ccccc3)s2)c(C)c1Cl,0.883
16,COc1cc2c(cc1OC)C(C(=O)NCC1COc3ccccc3O1)C(c1cccs1)N(C)C2=O (stereo not shown),1.83
17,COc1cccc(CNCc2c(C(=O)O)n(Cc3cccc(Cl)c3)c3ccccc23)c1,-3.21
18,Cn1cc(S(=O)(=O)N2CCCC2)cc1C(=O)N1CCN(C2CCCCC2)CC1,-0.361
19,CC1CCN(C(=O)CCNS(=O)(=O)c2cccc3nsnc23)CC1,-2.04
20,Cc1cccc(NC(=O)CC(c2ccccc2)c2ccccc2)n1,-0.053
21,O=C(CN(c1ccc(F)cc1)S(=O)(=O)c1ccc2c(c1)OCCO2)NCc1ccc(Cl)cc1,1.1
22,Cc1ccccc1Cc1c(C)nc2c(C(=O)N3CCOCC3)cnn2c1C,-5.92
23,O=C(Cc1ccccc1)Nc1ccccc1C(=O)O,-5.51
24,CNS(=O)(=O)c1ccc(NC(=O)Cn2nc(C(F)F)cc2C)cc1,6.65
25,CCOc1ccccc1NS(=O)(=O)c1c(C)cc(C)cc1C,-1.62
